Reference: the supplement of paper PMC5499739
Whole data set: some 16,000 sequences, median “Z-score” near -0.37, cut for the highest 2% near 3.2. This is one part of the list.

System: RBM10 RRM1-ZnF (GST-tagged construct)
Assay: RNAcompete 7-mer binding Z-score; higher = stronger binding preference
Method in brief: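 A designed pool of 241 399 RNAs, each up to 41 nt and transcribed from microarray-derived DNA templates, was used at 1.5 nmol with 20 pmol of GST-tagged RBM10 constructs. The mixture, in 1 ml Hepes pH 7.8 buffer with KCl, NaCl, glycerol, DTT, BSA and glutathione Sepharose beads, was held 30 min at 4°C and then washed four times for 2 min at 4°C. Bound RNA was read out by microarray hybridisation, and enrichment of each heptamer motif was scored as a one-sided Z-score over the probes carrying it.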

Sequence | RNAcompete 7-mer binding Z-score
CUCAUUG | -0.672
AAAAUUC | -0.675
CCACCGC | -0.353
GUCGCUU | -0.623
GUGUCGA | 0.108
GGAAAAC | 1.1
ACCAAGA | -0.636
UGCUUGU | -0.636
UCACACU | -0.467
GCAUGGU | 1.14
CCCUGUG | -0.327
ACAGGAU | 1.24
GCUGGCA | 0.163
UGACCAG | -0.0609
CAAAUAA | -0.451
CUGUCCC | -0.652
UCACCCC | -0.334
GUAGGUC | 1.11
CGAGAUA | -0.0707
GCAAACC | -0.412
GCCGCAC | -0.506
GAAUCGU | -0.337
AUCGCGA | -0.386

Sequence | RNAcompete 7-mer binding Z-score
GGACUGU | 0.498
AGUCGUU | -0.191
UGUGCCA | -0.542
ACGUUAG | -0.233
AUCCUCA | -0.805
GUGUUUU | 0.134
CUACACU | -0.594
CCUGCCA | -0.831
UCCUUAU | -0.844
GACUGUG | -0.119
UGCAAAA | -0.415
CCCCUUA | -0.646
UGAAUCA | 0.0105
AGUAAGU | 0.137
ACCGUGG | 0.329
UCCCCGU | -0.425
AGAAUGG | 3.27
UAAAGCA | -0.311
UCAAGGG | 1.16
AAACUUU | -0.772
UGAGUCA | -0.11
UAGUUGC | -0.22
AGGGGGU | 3.09

Sequence | RNAcompete 7-mer binding Z-score
GUGAUCC | -0.262
CCCUGAG | -0.311
CUGAUGC | -0.5
GUAAAAA | 0.144
AGCUGGG | 2.33
AACAUGU | -0.181
GUACAUG | 0.823
AGCUAUG | -0.168
ACCUAUG | -0.753
CUAACUG | -0.444
CGAAGCC | -0.483
GCAGCUU | -0.418
CCUAUCA | -0.854
GAGGCUU | -0.223
GGCAAUG | 1.23
CAGCUUG | -0.529
CGAACUU | -0.789
CGGUGAG | 1.42
GAAUCAG | 0.469
AGCUAGC | -0.487
GCCCUCG | -0.552
UUCACCG | -0.694
ACUAAUC | -0.552

Sequence | RNAcompete 7-mer binding Z-score
CGAAGCU | -0.691
UCCAUCG | -0.655
UACCCUC | -0.756
GCAGUGG | 1.75
GGUACUG | 0.966
UUUGAUA | -0.444
GACAACA | -0.311
AUAUUUA | -0.668
UGCGGGG | 3.26
UGAAAGA | 0.261
UCCGCAG | -0.464
UCAACUG | -0.477
GUUCGGA | -0.0739
CUUGAAG | -0.412
CUCUUAU | -0.863
AUUUACG | -0.555
CCCAUGG | 0.0528
CCAUAGG | -0.347
UAGCAUA | -0.412
UAGCCCC | -0.48
AACUAGG | 0.199
AGGCGUA | 0.459
CGUGACA | -0.282
